Results published in PMC5892938.
The list shows a part of the results. At the low end of the ranking, values are background and their order means little.
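Note: DESeq read counts versus GST-SBP nonspecific binding control pulldown.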

Each sequence was assayed against GST-SBP-SLBP (stem-loop binding protein) (UniProt Q14493) (assay: targeted RNA Bind-n-Seq). Conditions: RBNS binding buffer: 25 mM Tris pH 7.5, 150 mM KCl, 3 mM MgCl2, 0.1% Tween, 0.5 mg/mL BSA, 1 mM DTT; 27 nM protein, 750 pM RNA pool; temperature not stated; high values mean tight binding.
With “GGUCACGUCUCAAUCAACUCAUCCUCAGGAGUUUGCUCCUGUUUUCUCAACAGCUCGCAGUCAAG” the binding signal (log2 fold change) was -0.0589.
“GGUCACGUCUCAAUCAACUCUUCUUCCAGGGAAAACCCUGGCUAACUCAACAGCUCGCAGUCAAG” gave a binding signal (log2 fold change) of -0.194.
“GGUCACGUCUCAAUCAACUCGUCUUCAGGAGUUUUCUCCUGCUAAUUCAACAGCUCGCAGUCAAG” gave a binding signal (log2 fold change) of 0.0799.
Work on “GGUCACGUCUCAAUCAACUCAUCUUCAGGAGUUUUCUCCUGUAUAUUCAACAGCUCGCAGUCAAG” yielded a binding signal (log2 fold change) of -0.0228.
“GGUCACGUCUCAAUCAACUCAGUCUCCAGGGAAAUCCCUGGCUUAUUCAACAGCUCGCAGUCAAG” showed a binding signal (log2 fold change) of 0.0312.
Work on “GGUCACGUCUCAAUCAACUCUACUCCAGGAGUUUCCUCCUGCUUACUCAACAGCUCGCAGUCAAG” yielded a binding signal (log2 fold change) of 0.0902.
Sequence “GGUCACGUCUCAAUCAACUCAGUCCCAGGAGUUUCCUCCUGCUUUUUCAACAGCUCGCAGUCAAG” has a binding signal (log2 fold change) of 0.019.
“GGUCACGUCUCAAUCAACUCAAUUCCAGGAGUUUCCUCCUGCAUAGUCAACAGCUCGCAGUCAAG” gave a binding signal (log2 fold change) of 0.114.
Work on “GGUCACGUCUCAAUCAACUCAUCGUCAGGAGUUUCCUCCUGUAAUCUCAACAGCUCGCAGUCAAG” yielded a binding signal (log2 fold change) of 0.211.
For “GGUCACGUCUCAAUCAACUCUAGGUCAGGAGUUUUCUCCUGUUAAUUCAACAGCUCGCAGUCAAG”, the binding signal (log2 fold change) was -0.0176.
“GGUCACGUCUCAAUCAACUCUUUCGAGGGGGGGAAAACCCCUUUGCCCUCAAUAUCAACAGCUCGCAGUCAAG” gave a binding signal (log2 fold change) of 0.246.
“GGUCACGUCUCAAUCAACUCACUAGAGGGGGGGAAAACCCCUUUGCCCUCAUUCUCAACAGCUCGCAGUCAAG” showed a binding signal (log2 fold change) of 0.144.
Sequence “GGUCACGUCUCAAUCAACUCUAAAGAGGGGGGGAAAACCCCUUUACCCUCACAUUCAACAGCUCGCAGUCAAG” has a binding signal (log2 fold change) of 0.0871.
For “GGUCACGUCUCAAUCAACUCAGUCUCAGGAGUUUUCUCCUGCAUUUUCAACAGCUCGCAGUCAAG”, the binding signal (log2 fold change) was 0.0197.
“GGUCACGUCUCAAUCAACUCUCACGAGGGGGGGAAAACCCCUUUGCCCUCAAUCUCAACAGCUCGCAGUCAAG” gave a binding signal (log2 fold change) of -0.237.
“GGUCACGUCUCAAUCAACUCUUACGAGGGGGGGAAAACCCCUUUACCCUCACAAUCAACAGCUCGCAGUCAAG” showed a binding signal (log2 fold change) of -0.0584.
“GGUCACGUCUCAAUCAACUCUUCCCCCAGGGAAAACCCUGGUAUACUCAACAGCUCGCAGUCAAG” showed a binding signal (log2 fold change) of 0.14.
Work on “GGUCACGUCUCAAUCAACUCAGUUCCAGGAGUUUUCUCCUGUAUAUUCAACAGCUCGCAGUCAAG” yielded a binding signal (log2 fold change) of 0.00536.
Work on “GGUCACGUCUCAAUCAACUCUUUAGAGGGGGGGAAAACCCCUUUACCCUCAUCGUCAACAGCUCGCAGUCAAG” yielded a binding signal (log2 fold change) of -0.0294.
“GGUCACGUCUCAAUCAACUCCUUAGAGGGGGGGAAAACCCCUUUACCCUCAUUCUCAACAGCUCGCAGUCAAG” was tested, and the binding signal (log2 fold change) was 0.132.
Sequence “GGUCACGUCUCAAUCAACUCAUUCUCCAGGGAAACCCCUGGCUUAGUCAACAGCUCGCAGUCAAG” has a binding signal (log2 fold change) of 0.168.
“GGUCACGUCUCAAUCAACUCCCAAGAGGGGGGGAAAACCCCUUUACCCUCACUCUCAACAGCUCGCAGUCAAG” gave a binding signal (log2 fold change) of 0.558.
In the case of “GGUCACGUCUCAAUCAACUCAAUUUCCAGGGAAACCCCUGGUUUUUUCAACAGCUCGCAGUCAAG”, the binding signal (log2 fold change) is reported as -0.255.
Work on “GGUCACGUCUCAAUCAACUCUAUUUCAGGAGUUUCCUCCUGUAUUUUCAACAGCUCGCAGUCAAG” yielded a binding signal (log2 fold change) of 0.0431.
In the case of “GGUCACGUCUCAAUCAACUCAUCCCCAGGAGUUUGCUCCUGCUAAUUCAACAGCUCGCAGUCAAG”, the binding signal (log2 fold change) is reported as 0.209.
For “GGUCACGUCUCAAUCAACUCAUCCUCAGGAGUUUGCUCCUGCUAUCUCAACAGCUCGCAGUCAAG”, the binding signal (log2 fold change) was 0.253.
“GGUCACGUCUCAAUCAACUCAAUCCCAGGAGUUUACUCCUGUAAUUUCAACAGCUCGCAGUCAAG” showed a binding signal (log2 fold change) of -0.0558.
“GGUCACGUCUCAAUCAACUCUUUUUCCAGGGAAAGCCCUGGUAUUUUCAACAGCUCGCAGUCAAG” was tested, and the binding signal (log2 fold change) was -0.208.
With “GGUCACGUCUCAAUCAACUCUAUUUCCAGGGAAACCCCUGGUAUUUUCAACAGCUCGCAGUCAAG” the binding signal (log2 fold change) was 0.0344.
“GGUCACGUCUCAAUCAACUCAACUCCAGGAGUUUACUCCUGCAAUCUCAACAGCUCGCAGUCAAG” gave a binding signal (log2 fold change) of 0.032.
“GGUCACGUCUCAAUCAACUCAUUUUCAGGAGUUUUCUCCUGCGUAUUCAACAGCUCGCAGUCAAG” showed a binding signal (log2 fold change) of -0.0937.
“GGUCACGUCUCAAUCAACUCUAUCCCCAGGGAAAGCCCUGGCUAAUUCAACAGCUCGCAGUCAAG” gave a binding signal (log2 fold change) of 0.095.
“GGUCACGUCUCAAUCAACUCUCUAGAGGGGGGGAAAACCCCUUUUCCCUCAUUAUCAACAGCUCGCAGUCAAG” showed a binding signal (log2 fold change) of -0.00703.
For “GGUCACGUCUCAAUCAACUCAAUCUCAGGAGUUUACUCCUGUAUAUUCAACAGCUCGCAGUCAAG”, the binding signal (log2 fold change) was 0.0383.
Work on “GGUCACGUCUCAAUCAACUCAUUCUCCAGGGAAAUCCCUGGUAAUCUCAACAGCUCGCAGUCAAG” yielded a binding signal (log2 fold change) of -0.119.
“GGUCACGUCUCAAUCAACUCCCUAGAGGGGGGGAAAACCCCUUUACCCUCGUAUUCAACAGCUCGCAGUCAAG” showed a binding signal (log2 fold change) of -0.516.
“GGUCACGUCUCAAUCAACUCAUCGCCCAGGGAAACCCCUGGUAAUUUCAACAGCUCGCAGUCAAG” was tested, and the binding signal (log2 fold change) was -0.0686.
“GGUCACGUCUCAAUCAACUCAUUUUCCAGGGAAACCCCUGGUUUUUUCAACAGCUCGCAGUCAAG” was tested, and the binding signal (log2 fold change) was -0.31.
For “GGUCACGUCUCAAUCAACUCAUCUUCAGGAGUUUCCUCCUGCUUAGUCAACAGCUCGCAGUCAAG”, the binding signal (log2 fold change) was 0.0723.
“GGUCACGUCUCAAUCAACUCUACUCCAGGAGUUUCCUCCUGCAUAUUCAACAGCUCGCAGUCAAG” was tested, and the binding signal (log2 fold change) was 0.0764.
“GGUCACGUCUCAAUCAACUCUACUUCAGGAGUUUUCUCCUGCAUUUUCAACAGCUCGCAGUCAAG” gave a binding signal (log2 fold change) of -0.0621.
“GGUCACGUCUCAAUCAACUCUAUCCCAGGAGUUUUCUCCUGCUUACUCAACAGCUCGCAGUCAAG” gave a binding signal (log2 fold change) of 0.0337.
For “GGUCACGUCUCAAUCAACUCUUAAGAGGGGGGGAAAACCCCUUUACCCUCCAAUUCAACAGCUCGCAGUCAAG”, the binding signal (log2 fold change) was -0.45.
For “GGUCACGUCUCAAUCAACUCUACUUCAGGAGUUUACUCCUGUUUACUCAACAGCUCGCAGUCAAG”, the binding signal (log2 fold change) was -0.0193.
Sequence “GGUCACGUCUCAAUCAACUCUAUCUCCAGGGAAAACCCUGGCAAACUCAACAGCUCGCAGUCAAG” has a binding signal (log2 fold change) of -0.0127.
With “GGUCACGUCUCAAUCAACUCAUUCCCAGGAGUUUUCUCCUGUUAAUUCAACAGCUCGCAGUCAAG” the binding signal (log2 fold change) was -0.138.
Work on “GGUCACGUCUCAAUCAACUCUUCCUCCAGGGAAAGCCCUGGUUUUCUCAACAGCUCGCAGUCAAG” yielded a binding signal (log2 fold change) of 0.0519.
